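Following 48 hours of exposure in 96-well plates, responses at five concentrations were used to interpolate endpoints linearly. Here, GI50 denotes the concentration required for 50% inhibition of growth.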 The source made the active and inactive calls. Cut-off read from the data, not from the text of the source: active = GI50 up to about 1.1 µM and inactive = higher.

In this test the test system is NCI-H322M. Description: growth of human tumour cells (NCI), 48 h.
For the compound `CCOC(=O)Nc1ccc(S(=O)(=O)Nn2cnnc2)cc1`, the GI50 was inactive: > 100 µM.

With `O=[N+]([O-])c1ccc(COc2cccc3cccnc23)cc1`, the GI50 was inactive: 24.9 µM.

Consider `COc1ccc(/C=C2\CCc3cc(OC)c(OC)cc3C2=O)cc1`, for which the GI50 is inactive: > 10 µM.

For `COc1cc(-c2cc(O)c3ccccc3n2)cc(OC)c1OC`, the GI50 was inactive: > 75 µM.

As to `COc1ccc(-c2cc(O)c3cc4c(cc3n2)OCO4)cc1`, the GI50 is inactive: > 100 µM.

Turning to `COc1ccc2[nH]c3c4c(ccc3c2c1)C(=O)C=CC4=O`, the GI50 was inactive: 29.6 µM.

On to `C=C1C(=O)C2=CC1CCC(=O)C1(C)CCC(OC(C)=O)C(C)(C)C1CC2O` (configuration not stated), for which the GI50 was inactive: 12.2 µM.

On to `OCCn1cnc2c(SCc3ccccc3)ncnc21`, for which the GI50 was inactive: > 100 µM.

As to `O=C(CN1CCCCC1)Nc1ccc2sc3ccccc3c(=O)c2n1`, the GI50 was inactive: 17.7 µM.

As for `C[N+](C)([O-])C12CC3CC(CC(C3)C1)C2`, the GI50 was inactive: 29 µM.

On to `CCOC(=O)C1=C(C)N(c2ccc(Cl)cc2)C2(O)C=CC(=O)C3C(=O)N(c4ccccc4)C(=O)C132` (configuration not stated), for which the GI50 is inactive: 2.4 µM.

Turning to `C[C@]12CC[C@H](OCCC#N)CC1=CC[C@@H]1C2CC[C@]2(C)/C(=N/OCCC#N)CCC12` (some centres not stated), the GI50 was inactive: > 100 µM.

`CN(C)/N=N/c1ccc(NC=O)cc1`: the GI50 is inactive: > 100 µM.

In the case of `CSc1sc(=S)sc1SC`, the GI50 was inactive: > 100 µM.

For `C[C@@H](CO)C1=CC(C#C[Si](C)(C)C)N(C(=O)Oc2ccccc2)c2ccccc21` (some centres not stated), the GI50 is inactive: 17.7 µM.

Consider `CC(C)NC(=O)OCc1c(COC(=O)NC(C)C)c(-c2ccc[n+](COC(=O)C3CC3)c2)n2c1CCC2`, for which the GI50 was inactive: 83.2 µM.

As to `Nc1nc(Cl)cc(NCC2(CO)CC(CCc3ccccc3)C2)n1` (configuration not stated), the GI50 was inactive: > 100 µM.

In the case of `O=c1cc(N2CCCC2)[nH]c(=O)n1-c1ccccc1`, the GI50 was inactive: > 100 µM.

On to `CC(C)=CCC[C@]1(C)CC[C@]2(C)C3CCC(=C(C)C)[C@@H](CCCO)[C@]3(C)CC[C@@]2(C)C1` (some centres not stated), for which the GI50 is inactive: > 100 µM.

As to `O=C1Nc2ccccc2[C@]12C[C@H]2c1ccccn1`, the GI50 was inactive: > 100 µM.

As to `CCOC(=O)/C=C/n1c2ccccc2c(=O)c2cc(OC)ccc21`, the GI50 was inactive: > 100 µM.

With `CC(=O)OCCOCNC(=S)N/N=C(\C)c1cnccn1`, the GI50 was inactive: 25.1 µM.

As for `CC1=C(C(=O)Nc2c(C)cccc2C)C(c2ccccc2Cl)C(C(=O)Nc2c(C)cccc2C)=C(C)N1`, the GI50 is inactive: > 100 µM.

As for `Cc1ccc(S(=O)(=O)C(C#N)c2nc3ccccc3nc2-n2cccn2)cc1` (configuration not stated), the GI50 was inactive: > 100 µM.

With `c1ccc2c(c1)CN1CCCC1CN2` (configuration not stated), the GI50 was inactive: > 100 µM.

On to `c1csc(-c2ccc(-c3ccsc3)s2)c1`, for which the GI50 is inactive: > 100 µM.

In the case of `CC1(C)CC(=O)C2=C(C1)NC1=C(C(=O)CC(C)(C)C1)C2c1ccc([N+](=O)[O-])cc1`, the GI50 is inactive: > 100 µM.

Turning to `CC1OC(OC2C(OC(=O)[C@]34CCC(C)(C)C[C@H]3C3=CC[C@@H]5[C@@]6(C)CC[C@H](OC7OC(CO)C(O)C(O)C7OC7OC(CO)C(O)C(O)C7O)C(C)(C)[C@@H]6CC[C@@]5(C)[C@]3(C)CC4)OCC(O)C2O)C(O)C(OC2OCC(O)C(O)C2O)C1OC1OCC(O)C(OC2OCC(O)C(O)C2O)C1O` (some centres not stated), the GI50 is inactive: 6.21 µM.

`CC1=NN(c2cccc(Cl)c2)C2(SCC(=O)N2c2nc3ccccc3s2)/C1=C\c1ccc(Cl)cc1` (configuration not stated): the GI50 was inactive: 29.8 µM.

Consider `COC1(OC)CCC2C1C1CCC(OC)(OC)C21` (configuration not stated), for which the GI50 was inactive: > 50 µM.

As to `Cc1cc(C)nc(NS(=O)(=O)c2ccc(NNc3c4ccccc4nc4c(C(=O)Nc5ccc(S(=O)(=O)Nc6cc(C)on6)cc5)cccc34)cc2)n1`, the GI50 was inactive: 38.8 µM.

With `CC[C@@H]1CC[C@@H]2[C@H](CC[C@]3(C)[C@@H](O)CC[C@@H]23)[C@H]1CO`, the GI50 was inactive: > 100 µM.

Regarding `Cc1c(-c2ccccc2)c(C#N)c2nnn(-c3cccc(Cl)c3)c(=O)n12`, the GI50 was inactive: 78.5 µM.

Turning to `CCC(CC)n1cc(C(=O)NC(=O)NCCCCCOC(=O)CCCCCCCCCCC(=O)OCCCCCNC(=O)NC(=O)c2cn(C(CC)CC)c(=O)[nH]c2=O)c(=O)[nH]c1=O`, the GI50 is inactive: > 100 µM.

For `O=C1CS/C(=N/N=C/c2cn(Cc3ccc(Cl)cc3Cl)c3ccccc23)N1`, the GI50 was inactive: 38.1 µM.

As for `CC(=O)n1c(=O)c2cc3c(=O)n(-c4cccc(C#N)c4)c(=O)c3cc2c1=O`, the GI50 was inactive: > 100 µM.

As to `CC1Cc2c(N)nc(N3CCOCC3)nc2NC1=O` (configuration not stated), the GI50 was inactive: > 100 µM.

On to `CC1=C(/C(C)=N/NC(=O)c2ccccc2O)C(C)C(/C(C)=N/NC(=O)c2ccccc2O)=C(C)N1`, for which the GI50 is inactive: 27 µM.

Regarding `COc1ccccc1NC(=O)CC(=O)NNCC(=O)Nc1nc(-c2ccccc2)cs1`, the GI50 was inactive: > 100 µM.

As for `CN(C)CC1(C)CC/C(=C\c2ccc(Cl)cc2)C1=O` (configuration not stated), the GI50 is inactive: 53.8 µM.

Regarding `Cc1nc2nn(Cc3ccccc3)cc2c(=O)o1`, the GI50 is inactive: > 100 µM.

Consider `NC(=O)c1ccccc1NC(=O)C(=O)Nc1n[nH]c(N)n1`, for which the GI50 was inactive: > 100 µM.

Take `O=C1c2ccsc2-c2cccc3cccc1c23.O=C1c2sccc2-c2cccc3cccc1c23`: the GI50 is inactive: 1.35 µM.

`C=CC1(O)CCCC=C1COCc1ccccc1` (configuration not stated): the GI50 was inactive: > 100 µM.

Consider `CCOC(=O)c1sc2nc1CSc1sc(=S)sc1SCc1nc(sc1C(=O)OCC)-c1nc(c(C(=O)OCC)s1)CSc1sc(=S)sc1SCc1nc-2sc1C(=O)OCC`, for which the GI50 is inactive: > 10 µM.

Take `CCCN(CCCCC(NC(C)=O)C(=O)NCc1ccccc1)C(=O)NC` (configuration not stated): the GI50 is inactive: > 100 µM.

As for `CC1C(c2ccccc2O)c2cc3c(cc2OC1N1CCOCC1)OCO3` (configuration not stated), the GI50 was inactive: 44.6 µM.

For `C=C(C)[C@H]1C=C[C@@H](OC(=O)c2cccnc2)[C@@]23CO[C@@](C)([C@H](OC(=O)c4cccnc4)[C@@]4(OC(C)=O)C[C@H](C)[C@H](OCCC)[C@@H]4[C@H]2OC(C)=O)[C@H]13`, the GI50 was inactive: > 15 µM.

For the compound `CCOP(=O)(OCC)C(C)(CC)NC` (configuration not stated), the GI50 was inactive: > 100 µM.

In the case of `Cc1ccc(S(=O)(=O)NC(=O)NC(Cc2ccc(O)cc2)C(=O)O)cc1` (configuration not stated), the GI50 was inactive: > 100 µM.

Turning to `COc1ccc(/N=N/c2c(C)c(C#N)c(=S)n(C3OC(COC(C)=O)C(OC(C)=O)C(OC(C)=O)C3OC(C)=O)c2C)cc1` (configuration not stated), the GI50 was inactive: > 100 µM.

With `CC1=NN(C(=O)CC(=O)NC(=O)CC(=O)Nc2ccccc2F)C(=O)C1/N=N/c1ccc([N+](=O)[O-])cc1` (configuration not stated), the GI50 was inactive: 51.1 µM.

In the case of `O=[N+]([O-])/C(C(Cl)=C(Cl)Cl)=C1\NCCS1`, the GI50 was inactive: > 100 µM.

Consider `Cc1cc(N(CCC#N)S(=O)(=O)c2ccccc2)ccc1C=O`, for which the GI50 was inactive: > 100 µM.

Take `c1ccc(CC2COC(c3cccs3)=N2)cc1` (configuration not stated): the GI50 is inactive: > 100 µM.

Consider `O=c1[nH]c2cc3[nH]c4ncccc4c(=O)c3cc2[nH]1`, for which the GI50 was inactive: > 10 µM.

With `CCCCCCCCCCCCCCCCOP(=O)(O)OCC(NC(C)=O)C(=O)O` (configuration not stated), the GI50 was inactive: > 100 µM.

As for `N/C(=C\c1ccc(OCc2ccccc2)c(OCc2ccccc2)c1[N+](=O)[O-])C(=O)O`, the GI50 is inactive: > 100 µM.

Regarding `CC1(C)OC(=O)C(c2ccsc2)C(=O)O1`, the GI50 is inactive: > 100 µM.

Turning to `COC(=O)CCC(=O)c1ccc2c(c1)CC1(C2)Cc2ccc3c(c2C1)CCCC3=O` (configuration not stated), the GI50 was inactive: > 67.5 µM.

As to `CCOc1cc2c(cc1O)C(O)C[C@@H]1[C@@H]2CC[C@]2(C)[C@@H](O)CC[C@@H]12` (some centres not stated), the GI50 is active: 0.845 µM.

In the case of `Nc1ccn(CCO)c(=O)n1`, the GI50 is inactive: > 100 µM.

With `COc1ccc(C2C3CCc4ccccc4C3=NN2S(=O)(=O)c2cccc(C(=O)O)c2OC)cc1` (configuration not stated), the GI50 is inactive: 32.4 µM.

With `CC(=O)/N=S(/NC(=O)c1ccc(C)cc1)C(Cl)(Cl)Cl` (configuration not stated), the GI50 was inactive: > 100 µM.

For the compound `COc1ccc(/C=C/C(=O)NCC(NC(=O)/C=C/c2ccc(OC)c(OC)c2)C(=O)O)cc1OC` (configuration not stated), the GI50 is inactive: > 100 µM.

Regarding `COc1oc(C2C/C(=C/C(C)=C/C(C)=C/C(C)=C/c3ccc([N+](=O)[O-])cc3)CO2)c(C)c(=O)c1C` (configuration not stated), the GI50 is inactive: 23.6 µM.

With `c1ccc(CNc2ncnc3nn[nH]c23)cc1`, the GI50 is inactive: > 100 µM.

For the compound `CCCCCCOP(=O)(OCCCCCC)C(NC(=O)OCC)(C(F)(F)F)C(F)(F)F`, the GI50 is inactive: > 100 µM.

As to `CC(C)C1=CC23CCC4C(C)(C(=O)O)CCCC4(C)C2CC1C1C(=O)N(c2ccc(Cc4ccc(N5C(=O)C6C7CC8C9(C)CCCC(C)(C(=O)O)C9CCC8(C=C7C(C)C)C6C5=O)cc4)cc2)C(=O)C13` (configuration not stated), the GI50 was inactive: 11.5 µM.

As to `COc1cc(/C=[N+](\[O-])c2ccccc2Cl)ccc1OC(=S)S`, the GI50 was inactive: 68.5 µM.

`CC(NNC(=O)c1cc[n+]([BH2-]C#N)cc1)c1ccc(Cl)c(Cl)c1` (configuration not stated): the GI50 was inactive: 32.1 µM.

Consider `CC(=O)OC1CC2C(C)(C)OC(=O)CC(OC(C)=O)[C@]2(C)C2CCC3(C)C(=CCC3[C@H]3COC(=O)C3)[C@]12C` (some centres not stated), for which the GI50 was inactive: > 100 µM.

For the compound `COc1cc(C2c3cc4c(cc3[C@@H](Nc3ccccc3)C3COC(=O)[C@H]23)OCO4)cc(OC)c1O` (some centres not stated), the GI50 is inactive: 5.24 µM.

As for `N#Cc1c(-c2nc3ccccc3s2)c(=O)oc2cc(O)ccc12`, the GI50 was inactive: 31 µM.

On to `c1ccc([P+](c2ccccc2)(c2ccccc2)c2ccc([P+](c3ccccc3)(c3ccccc3)c3ccccc3)cc2)cc1`, for which the GI50 is inactive: > 100 µM.

As for `Cc1cc(S(=O)(=O)Nc2nc3cscc3c(=O)n2N)c(S)cc1Cl`, the GI50 was inactive: 33.3 µM.

Regarding `O=C1NC(=O)C2C3C=CC(C12)C1C2C(=O)NC(=O)C2C31` (configuration not stated), the GI50 is inactive: 217 µM.

The record behind these values is ChEMBL document CHEMBL1201862, “PubChem BioAssay data set” (2004).
